Experimental data as given in the supplement of paper PMC8728848.
Some of the results follow.

Legend:
Test in all cases: glycan array binding signal (z-score within array); higher = stronger binding
Conditions in all cases: glycan notation: IUPAC condensed, linker removed
[1] = target: Gal(b1-3)[Fuc(a1-4)]GlcNAc(b1-6)GalNAc
Procedure, shortened: (§1)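 Negative Z-scores can be read as non-binding. The Z-score is calculated within each array and then averaged across arrays of one protein sequence at different concentrations or buffers and across linkers. Arrays, 3228 in all, were curated from the Consortium for Functional Glycomics database and kept only where the protein sequence was available.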

[2] = target: Gal(b1-3)[GlcNAc(b1-6)]GalNAc
Procedure, shortened: as §1

[3] = target: Gal(b1-3)[Neu5Ac(a2-6)]GalNAc
Procedure, shortened: as §1

[4] = target: Gal(b1-3)[Neu5Ac(a2-6)]GlcNAc(b1-4)Gal(b1-4)Glc
Procedure, shortened: as §1

[5] = target: Gal(b1-3)[Neu5Ac(b2-6)]GalNAc
Procedure, shortened: as §1

Gal(b1-4)Gal = target: Gal(b1-4)Gal
Procedure, shortened: as §1

[6] = target: Gal(b1-4)GalNAc(a1-3)[Fuc(a1-2)]Gal(b1-4)GlcNAc
Procedure, shortened: as §1

[7] = target: Gal(b1-4)GalNAc(b1-3)[Fuc(a1-2)]Gal(b1-4)GlcNAc
Procedure, shortened: as §1

Gal(b1-4)Glc = target: Gal(b1-4)Glc
Procedure, shortened: as §1

Gal(b1-4)Glc6S = target: Gal(b1-4)Glc6S
Procedure, shortened: as §1

Gal(b1-4)GlcNAc = target: Gal(b1-4)GlcNAc
Procedure, shortened: as §1

[8] = target: Gal(b1-4)GlcNAc(a1-6)Gal(b1-4)GlcNAc
Procedure, shortened: as §1

Gal(b1-4)GlcNAc(b1-2)Man = target: Gal(b1-4)GlcNAc(b1-2)Man
Procedure, shortened: as §1

[9] = target: Gal(b1-4)GlcNAc(b1-2)Man(a1-3)Man(b1-4)GlcNAc(b1-4)GlcNAc
Procedure, shortened: as §1

[10] = target: Gal(b1-4)GlcNAc(b1-2)Man(a1-3)[Gal(b1-4)GlcNAc(b1-2)Man(a1-6)]Man(b1-4)GlcNAc(b1-4)GlcNAc
Procedure, shortened: as §1

[11] = target: Gal(b1-4)GlcNAc(b1-2)Man(a1-3)[Gal(b1-4)GlcNAc(b1-2)Man(a1-6)]Man(b1-4)GlcNAc(b1-4)[Fuc(a1-6)]GlcNAc
Procedure, shortened: as §1

[12] = target: Gal(b1-4)GlcNAc(b1-2)Man(a1-3)[Gal(b1-4)GlcNAc(b1-2)Man(a1-6)][Gal(b1-4)GlcNAc(b1-4)]Man(b1-4)GlcNAc(b1-4)[Fuc(a1-6)]GlcNAc
Procedure, shortened: as §1

[13] = target: Gal(b1-4)GlcNAc(b1-2)Man(a1-3)[Gal(b1-4)GlcNAc(b1-2)Man(a1-6)][GlcNAc(b1-4)]Man(b1-4)GlcNAc(b1-4)[Fuc(a1-6)]GlcNAc
Procedure, shortened: as §1

[14] = target: Gal(b1-4)GlcNAc(b1-2)Man(a1-3)[GlcNAc(b1-2)Man(a1-6)]Man(b1-4)GlcNAc(b1-4)GlcNAc
Procedure, shortened: as §1

[15] = target: Gal(b1-4)GlcNAc(b1-2)Man(a1-3)[GlcNAc(b1-4)][Gal(b1-4)GlcNAc(b1-2)Man(a1-6)]Man(b1-4)GlcNAc(b1-4)GlcNAc
Procedure, shortened: as §1

[16] = target: Gal(b1-4)GlcNAc(b1-2)Man(a1-3)[Man(a1-6)]Man(b1-4)GlcNAc(b1-4)GlcNAc
Procedure, shortened: as §1

[17] = target: Gal(b1-4)GlcNAc(b1-2)Man(a1-6)Man(b1-4)GlcNAc(b1-4)GlcNAc
Procedure, shortened: as §1

[18] = target: Gal(b1-4)GlcNAc(b1-2)Man(a1-6)[GlcNAc(b1-2)Man(a1-3)]Man(b1-4)GlcNAc(b1-4)GlcNAc
Procedure, shortened: as §1

B1: FimA-N1 (Actinomyces oris) (protein)
chain: MHHHHHHSSGVDLGTENLYFQSNATETPNYGNIKTDATGSLVIHKHLTGGGKDIGTPTGTAQNADDKGPAVEGVVFTAYPITDINLKDPAGWDTISNLSRTGVPDSACANPAAPTLGAHQFGTPKVSPATTKEGLATITEMPVQAYLVCETTTPGDIVQKAKPFVVTIPHPNTAAGADGQWIYDVNVYPKNEAIDVDKTIQAQK
- glycan array binding signal (z-score) [1]: -0.024
- glycan array binding signal (z-score) [2]: -0.29
- glycan array binding signal (z-score) [3]: -0.468
- glycan array binding signal (z-score) [4]: -0.004
- glycan array binding signal (z-score) [5]: -0.375
- glycan array binding signal (z-score) (Gal(b1-4)Gal): -0.308
- glycan array binding signal (z-score) [6]: -0.457
- glycan array binding signal (z-score) [7]: -0.306
- glycan array binding signal (z-score) (Gal(b1-4)Glc): 0.048
- glycan array binding signal (z-score) (Gal(b1-4)Glc6S): -0.211
- glycan array binding signal (z-score) (Gal(b1-4)GlcNAc): -0.171
- glycan array binding signal (z-score) [8]: -0.075
- glycan array binding signal (z-score) (Gal(b1-4)GlcNAc(b1-2)Man): -0.271
- glycan array binding signal (z-score) [9]: 0.25
- glycan array binding signal (z-score) [10]: 0.094
- glycan array binding signal (z-score) [11]: -0.016
- glycan array binding signal (z-score) [12]: -0.335
- glycan array binding signal (z-score) [13]: -0.333
- glycan array binding signal (z-score) [14]: -0.099
- glycan array binding signal (z-score) [15]: -0.179
- glycan array binding signal (z-score) [16]: -0.453
- glycan array binding signal (z-score) [17]: -0.363
- glycan array binding signal (z-score) [18]: -0.528
